From the supplement of paper PMC8728848
Some of the results follow.

Columns and labels:
Assay in all cases: glycan array binding signal (z-score within array); higher = stronger binding
Details in all cases: glycan notation: IUPAC condensed, linker removed; mutation: R74S
[1] = biological target: Gal(b1-4)GlcNAc(b1-3)Gal(b1-4)GlcNAc(b1-2)Man(a1-3)[Gal(b1-4)GlcNAc(b1-3)Gal(b1-4)GlcNAc(b1-2)Man(a1-6)]Man(b1-4)GlcNAc(b1-4)[Fuc(a1-6)]GlcNAc
Procedure, shortened: (§1)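 Negative Z-scores can be read as non-binding. The Z-score is calculated within each array and then averaged across arrays of one protein sequence at different concentrations or buffers and across linkers. Arrays, 3228 in all, were curated from the Consortium for Functional Glycomics database and kept only where the protein sequence was available.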

[2] = biological target: Gal(b1-4)GlcNAc(b1-3)Gal(b1-4)GlcNAc(b1-2)[Gal(b1-4)GlcNAc(b1-3)Gal(b1-4)GlcNAc(b1-6)]Man(a1-6)[Gal(b1-4)GlcNAc(b1-3)Gal(b1-4)GlcNAc(b1-2)Man(a1-3)]Man(b1-4)GlcNAc(b1-4)GlcNAc
Procedure, shortened: as §1

[3] = biological target: Gal(b1-4)GlcNAc(b1-3)Gal(b1-4)GlcNAc(b1-2)[Gal(b1-4)GlcNAc(b1-3)Gal(b1-4)GlcNAc(b1-6)]Man(a1-6)[Gal(b1-4)GlcNAc(b1-3)Gal(b1-4)GlcNAc(b1-2)Man(a1-3)]Man(b1-4)GlcNAc(b1-4)[Fuc(a1-6)]GlcNAc
Procedure, shortened: as §1

[4] = biological target: Gal(b1-4)GlcNAc(b1-3)Gal(b1-4)GlcNAc(b1-3)Gal(b1-4)GlcNAc
Procedure, shortened: as §1

[5] = biological target: Gal(b1-4)GlcNAc(b1-3)Gal(b1-4)GlcNAc(b1-3)Gal(b1-4)GlcNAc(b1-2)Man(a1-3)[Gal(b1-4)GlcNAc(b1-3)Gal(b1-4)GlcNAc(b1-3)Gal(b1-4)GlcNAc(b1-2)Man(a1-6)]Man(b1-4)GlcNAc(b1-4)GlcNAc
Procedure, shortened: as §1

[6] = biological target: Gal(b1-4)GlcNAc(b1-3)Gal(b1-4)GlcNAc(b1-3)Gal(b1-4)GlcNAc(b1-2)Man(a1-3)[Gal(b1-4)GlcNAc(b1-3)Gal(b1-4)GlcNAc(b1-3)Gal(b1-4)GlcNAc(b1-2)Man(a1-6)]Man(b1-4)GlcNAc(b1-4)[Fuc(a1-6)]GlcNAc
Procedure, shortened: as §1

[7] = biological target: Gal(b1-4)GlcNAc(b1-3)Gal(b1-4)GlcNAc(b1-3)Gal(b1-4)GlcNAc(b1-2)[Gal(b1-4)GlcNAc(b1-3)Gal(b1-4)GlcNAc(b1-3)Gal(b1-4)GlcNAc(b1-6)]Man(a1-6)[Gal(b1-4)GlcNAc(b1-3)Gal(b1-4)GlcNAc(b1-3)Gal(b1-4)GlcNAc(b1-2)Man(a1-3)]Man(b1-4)GlcNAc(b1-4)[Fuc(a1-6)]GlcNAc
Procedure, shortened: as §1

[8] = biological target: Gal(b1-4)GlcNAc(b1-3)Gal(b1-4)GlcNAc(b1-3)Gal(b1-4)GlcNAc(b1-3)Gal(b1-4)GlcNAc(b1-2)Man(a1-3)[Gal(b1-4)GlcNAc(b1-3)Gal(b1-4)GlcNAc(b1-3)Gal(b1-4)GlcNAc(b1-3)Gal(b1-4)GlcNAc(b1-2)Man(a1-6)]Man(b1-4)GlcNAc(b1-4)GlcNAc
Procedure, shortened: as §1

[9] = biological target: Gal(b1-4)GlcNAc(b1-3)Gal(b1-4)GlcNAc(b1-3)Gal(b1-4)GlcNAc(b1-3)Gal(b1-4)GlcNAc(b1-2)Man(a1-3)[Gal(b1-4)GlcNAc(b1-3)Gal(b1-4)GlcNAc(b1-3)Gal(b1-4)GlcNAc(b1-3)Gal(b1-4)GlcNAc(b1-2)Man(a1-6)]Man(b1-4)GlcNAc(b1-4)[Fuc(a1-6)]GlcNAc
Procedure, shortened: as §1

[10] = biological target: Gal(b1-4)GlcNAc(b1-3)Gal(b1-4)GlcNAc(b1-3)Gal(b1-4)GlcNAc(b1-3)Gal(b1-4)GlcNAc(b1-2)[Gal(b1-4)GlcNAc(b1-3)Gal(b1-4)GlcNAc(b1-3)Gal(b1-4)GlcNAc(b1-3)Gal(b1-4)GlcNAc(b1-6)]Man(a1-6)[Gal(b1-4)GlcNAc(b1-3)Gal(b1-4)GlcNAc(b1-3)Gal(b1-4)GlcNAc(b1-3)Gal(b1-4)GlcNAc(b1-2)Man(a1-3)]Man(b1-4)GlcNAc(b1-4)[Fuc(a1-6)]GlcNAc
Procedure, shortened: as §1

[11] = biological target: Gal(b1-4)GlcNAc(b1-3)Gal(b1-4)GlcNAc(b1-3)Gal(b1-4)GlcNAc(b1-3)Gal(b1-4)GlcNAc(b1-3)Gal(b1-4)GlcNAc(b1-2)Man(a1-3)[Gal(b1-4)GlcNAc(b1-3)Gal(b1-4)GlcNAc(b1-3)Gal(b1-4)GlcNAc(b1-3)Gal(b1-4)GlcNAc(b1-3)Gal(b1-4)GlcNAc(b1-2)Man(a1-6)]Man(b1-4)GlcNAc(b1-4)GlcNAc
Procedure, shortened: as §1

[12] = biological target: Gal(b1-4)GlcNAc(b1-3)Gal(b1-4)GlcNAc(b1-3)Gal(b1-4)GlcNAc(b1-3)Gal(b1-4)GlcNAc(b1-3)Gal(b1-4)GlcNAc(b1-2)Man(a1-3)[Gal(b1-4)GlcNAc(b1-3)Gal(b1-4)GlcNAc(b1-3)Gal(b1-4)GlcNAc(b1-3)Gal(b1-4)GlcNAc(b1-3)Gal(b1-4)GlcNAc(b1-2)Man(a1-6)]Man(b1-4)GlcNAc(b1-4)[Fuc(a1-6)]GlcNAc
Procedure, shortened: as §1

[13] = biological target: Gal(b1-4)GlcNAc(b1-3)Gal(b1-4)GlcNAc(b1-3)Gal(b1-4)GlcNAc(b1-3)Gal(b1-4)GlcNAc(b1-3)Gal(b1-4)GlcNAc(b1-2)[Gal(b1-4)GlcNAc(b1-3)Gal(b1-4)GlcNAc(b1-3)Gal(b1-4)GlcNAc(b1-3)Gal(b1-4)GlcNAc(b1-3)Gal(b1-4)GlcNAc(b1-6)]Man(a1-6)[Gal(b1-4)GlcNAc(b1-3)Gal(b1-4)GlcNAc(b1-3)Gal(b1-4)GlcNAc(b1-3)Gal(b1-4)GlcNAc(b1-3)Gal(b1-4)GlcNAc(b1-2)Man(a1-3)]Man(b1-4)GlcNAc(b1-4)[Fuc(a1-6)]GlcNAc
Procedure, shortened: as §1

[14] = biological target: Gal(b1-4)GlcNAc(b1-3)Gal(b1-4)GlcNAc(b1-3)Gal(b1-4)GlcNAc(b1-3)Gal(b1-4)GlcNAc(b1-3)Gal(b1-4)GlcNAc(b1-3)Gal(b1-4)GlcNAc(b1-2)Man(a1-3)[Gal(b1-4)GlcNAc(b1-3)Gal(b1-4)GlcNAc(b1-3)Gal(b1-4)GlcNAc(b1-3)Gal(b1-4)GlcNAc(b1-3)Gal(b1-4)GlcNAc(b1-3)Gal(b1-4)GlcNAc(b1-2)Man(a1-6)]Man(b1-4)GlcNAc(b1-4)GlcNAc
Procedure, shortened: as §1

[15] = biological target: Gal(b1-4)GlcNAc(b1-3)Gal(b1-4)GlcNAc(b1-3)GalNAc
Procedure, shortened: as §1

[16] = biological target: Gal(b1-4)GlcNAc(b1-3)Gal(b1-4)GlcNAc(b1-3)[Gal(b1-4)GlcNAc(b1-3)Gal(b1-4)GlcNAc(b1-6)]GalNAc
Procedure, shortened: as §1

[17] = biological target: Gal(b1-4)GlcNAc(b1-3)Gal(b1-4)GlcNAc(b1-6)[Gal(b1-3)]GalNAc
Procedure, shortened: as §1

[18] = biological target: Gal(b1-4)GlcNAc(b1-3)Gal(b1-4)[Fuc(a1-3)]GlcNAc(b1-3)Gal(b1-4)[Fuc(a1-3)]GlcNAc
Procedure, shortened: as §1

[19] = biological target: Gal(b1-4)GlcNAc(b1-3)GalNAc
Procedure, shortened: as §1

[20] = biological target: Gal(b1-4)GlcNAc(b1-3)[Fuc(a1-3)GlcNAc(b1-6)]Gal(b1-4)Glc
Procedure, shortened: as §1

[21] = biological target: Gal(b1-4)GlcNAc(b1-3)[Gal(b1-4)GlcNAc(b1-6)]Gal(b1-4)GlcNAc
Procedure, shortened: as §1

[22] = biological target: Gal(b1-4)GlcNAc(b1-3)[GlcNAc(b1-6)]Gal(b1-4)GlcNAc
Procedure, shortened: as §1

B1: Gal 7 (Homo sapiens) (protein)
chain: MSNVPHKSSLPEGIRPGTVLRIRGLVPPNASRFHVNLLCGEEGGSDAALHFNPRLDTSEVVFNSKEGGSWGREESGPGVPFGRGQPFEVLIIASDDGFKAVVGDAQYHHFRHRLPLARVRLVEVGGDVQLDSVRIF
[1]
  glycan array binding signal (z-score): 0.763
[2]
  glycan array binding signal (z-score): 1.49
[3]
  glycan array binding signal (z-score): 1
[4]
  glycan array binding signal (z-score): -0.395
[5]
  glycan array binding signal (z-score): 1.41
[6]
  glycan array binding signal (z-score): 2.72
[7]
  glycan array binding signal (z-score): 3.31
[8]
  glycan array binding signal (z-score): 5.53
[9]
  glycan array binding signal (z-score): 4.17
[10]
  glycan array binding signal (z-score): 4.03
[11]
  glycan array binding signal (z-score): 7.44
[12]
  glycan array binding signal (z-score): 4.13
[13]
  glycan array binding signal (z-score): 4.35
[14]
  glycan array binding signal (z-score): 2.18
[15]
  glycan array binding signal (z-score): -0.104
[16]
  glycan array binding signal (z-score): 0.433
[17]
  glycan array binding signal (z-score): -0.074
[18]
  glycan array binding signal (z-score): -0.27
[19]
  glycan array binding signal (z-score): -0.281
[20]
  glycan array binding signal (z-score): 0.007
[21]
  glycan array binding signal (z-score): -0.52
[22]
  glycan array binding signal (z-score): 0.58
